Measured values from patent US10800791B2, “Triazole ACC inhibitors and uses thereof” (Gilead Apollo, LLC, priority 2015, dated 2020).

Experiments:
[1] = system: Fusarium moniliforme (Fm); assay: Growth inhibition assay of fungal pathogens, Fm; format: cell-based; conditions: for IC90: Fusarium verticillioides, 48 h, read-out: Concentration at 90% Inhibition Fm
Experimental: (§1) Compounds of the present invention were evaluated in a growth inhibition assay to determine the ability to control the growth of fungal pathogens, such as Botrtyis cinerea (Bc), Collectotrichum graminicola (Cg), Diplodia maydis (Dm), Fusarium moniliforme (Fm), Fusarium virguliforme (Fv), Phytophthora capsici (Pc), Rhizoctonia solani (Rs), and Septoria tritici (St).
(§2) Compounds to be tested were dissolved in DMSO at 2.5 mg/ml to produce compound stock solutions (“stocks”). Stocks were diluted with DMSO by a five-fold dilution in a 96-well stock plate, and two sets of final concentrations of 50, 10, and 2 ppm or 2, 0.4, and 0.08 ppm were obtained in vitro. A set of positive controls was also prepared, with various concentrations of Soraphen (2, 0.4, and 0.08 ppm), Metalaxyl (1.1, 0.22, and 0.04 ppm), and Metconazole (2, 0.4, and 0.08 ppm or 0.2, 0.04, and 0.008 ppm) after the five-fold dilutions. Negative controls on each plate included 2% DMSO, water, and a blank (media+2% DMSO).
(§3) Fungal spores were isolated from previously sub-cultured plates of Botrtyis cinerea (Bc), Collectotrichum graminicola (Cg), Diplodia maydis (Dm), Fusarium moniliforme (Fm), Fusarium virguliforme (Fv), Phytophthora capsici (Pc), and Septoria tritici (St). The isolated spores were diluted to individual concentrations with a 17% V8 liquid media. For Rhizoctonia solani (Rs) and Pythium irregulare, 1.5 mm mycelial plugs were used in place of spores and/4 Potato Dextrose Broth (PDB) was used for dilution. The spore concentrations and plug sizes were based on growth curves generated at 48 hours for each pathogen.
(§4) In a second 96-well plate, the spores or mycelial plugs, media, diluted compound solutions, and controls were combined. Once the compound was added, a true final concentration of compound in each well was measured by an OD600 reading, which adjusted for any compound precipitation that might have occurred in the well. Plate readings were repeated at both 24 and 48 hours. The blank negative control was used as a background subtraction. Additional visual ratings were performed at both 24 and 48 hours for checking on precipitation and confirming efficacy. Visual and OD600 ratings of the compounds at 48 hours were compared to the 2% DMSO negative control, and the percent of pathogen growth inhibition was determined based on those values.

[2] = system: Collectotrichum graminicola (Cg); assay: Growth inhibition assay of fungal pathogens, Cg; format: cell-based; conditions: 48 h
Experimental: as §1, §2, §3, §4

[3] = system: Septoria tritici (St); assay: Growth inhibition assay of fungal pathogens, St; format: cell-based; conditions: Zymoseptoria tritici, 48 h
Experimental: as §1, §2, §3, §4

[4] = system: Fusarium virguliforme (Fv); assay: Growth inhibition assay of fungal pathogens, Fv; format: cell-based; conditions: 48 h
Experimental: as §1, §2, §3, §4

[5] = system: C. parapsilosis; assay: Antifungal Activity Assay (broth microtiter MIC), C. parapsilosis; format: cell-based, Candida parapsilosis; conditions: Lodderomyces parapsilosis, ATCC22019, 48 h
Experimental: (§5) Compounds of the present invention were evaluated in an Antifungal Activity Assay. An exemplary procedure for the assay, which measures the susceptibility of various Candida species to antifungal compounds, follows. Compounds to be tested (including fluconazole and amphotericin B) were dissolved in DMSO to obtain a solution having a concentration of 1 mg/mL. These stock solutions were sterile filtered using a 0.22 um nylon syringe filter, then diluted in sterile water to achieve a final concentration of 128 μg/mL.
(§6) All species were grown from frozen stock by directly plating on to freshly prepared Sabouraud Dextrose agar (BD, Difco) and incubated overnight in ambient air at 35° C. for 24 h. A direct suspension was prepared in RPMI 1640+MOPS (Lonza, Biowhittaker) by taking individual colonies from the overnight cultures using sterile swabs soaked in sterile saline. The concentration of the suspension was determined using pre-determined standard curves. These suspensions were then diluted down to 5×10^3 CFU/mL to achieve a final concentration of 2.5×10^3 CFU/mL once added to the microtiter plate as per CLSI guidelines (M27-A3, Vol. 28 No. 14).
(§7) Broth microtiter MIC challenge plates were prepared following CLSI guidelines (M27-A3, Vol. 28 No. 14). The original CLSI guidelines focused on reading Candida MICs after 48 h of incubation. As reading after only 24 h offers a clear advantage of patient care, QC limits are being established for all drugs at 24 h. That being said there are no known interpretive breakpoints for amphotericin B at 24 h and the current fluconazole interpretive breakpoints are based on a 48 h reading. The MICs for the test compounds were recorded at 48 h. All MIC determinations were achieved by visually comparing the growth found in the antibiotic challenged wells to that of the growth control.

[6] = system: Diplodia maydis (Dm); assay: Growth inhibition assay of fungal pathogens, Dm; format: cell-based; conditions: Stenocarpella maydis, 48 h
Experimental: as §1, §2, §3, §4

[7] = molecular target: fungal (fACC2) (UniProt Q00955); conditions: read-out: fACC2 (in vitro ACC2 Inhibition Assay, IC50), ADP-Glo, 5 nM ACC2, 20 μM ATP, 20 μM acetyl-CoA
[8] = system: Botrtyis cinerea (Bc); assay: Growth inhibition assay of fungal pathogens, Bc; format: cell-based; conditions: 48 h
Experimental: as §1, §2, §3, §4

[9] = system: C. albicans; assay: Antifungal Activity Assay (broth microtiter MIC), C. albicans; format: cell-based; conditions: Candida albicans, ATCC90028, 48 h
Experimental: as §5, §6, §7

[10] = system: C. krusei; assay: Antifungal Activity Assay (broth microtiter MIC), C. krusei; format: cell-based, Candida krusei; conditions: Pichia kudriavzevii, ATCC6258, 48 h
Experimental: as §5, §6, §7

[11] = Fusarium moniliforme, growth inhibition at 48 hours vs 2% DMSO control
[12] = Fusarium moniliforme, growth inhibition vs 2% DMSO control at 48 hours
[13] = Collectotrichum graminicola, growth inhibition at 48 hours vs 2% DMSO control, read-out: Concentration at 90% Inhibition Cg
[14] = Collectotrichum graminicola, growth inhibition vs 2% DMSO control at 48 hours, read-out: Concentration at 90% Inhibition Cg
[15] = Septoria tritici, growth inhibition at 48 hours vs 2% DMSO control, read-out: Concentration at 90% Inhibition St
[16] = Septoria tritici, growth inhibition vs 2% DMSO control at 48 hours, read-out: Concentration at 90% Inhibition St
[17] = growth inhibition at 48 hours vs 2% DMSO control, read-out: Concentration at 90% Inhibition Fv
[18] = growth inhibition vs 2% DMSO control at 48 hours, read-out: Concentration at 90% Inhibition Fv
[19] = Table 3a, ATCC 22019, 3 replicates, MIC recorded at 48 h, read-out: MIC, C. parapsilosis ATCC 22019
[20] = Table 3b (additional results), ATCC 22019, 3 replicates, MIC recorded at 48 h, read-out: MIC, C. parapsilosis ATCC 22019
[21] = Diplodia maydis, growth inhibition at 48 hours vs 2% DMSO control, read-out: Concentration at 90% Inhibition Dm
[22] = Diplodia maydis, growth inhibition vs 2% DMSO control at 48 hours, read-out: Concentration at 90% Inhibition Dm
[23] = Botrtyis cinerea, growth inhibition at 48 hours vs 2% DMSO control, read-out: Concentration at 90% Inhibition Bc
[24] = Botrtyis cinerea, growth inhibition vs 2% DMSO control at 48 hours, read-out: Concentration at 90% Inhibition Bc
[25] = Table 3a, ATCC 90028, 3 replicates, MIC recorded at 48 h, read-out: MIC, C. albicans ATCC 90028
[26] = Table 3b (additional results), ATCC 90028, 3 replicates, MIC recorded at 48 h, read-out: MIC, C. albicans ATCC 90028
[27] = Table 3a, ATCC 6258, 3 replicates, MIC recorded at 48 h, read-out: MIC, C. krusei ATCC 6258
[28] = Table 3b (additional results), ATCC 6258, 3 replicates, MIC recorded at 48 h, read-out: MIC, C. krusei ATCC 6258

Chain of UniProt Q00955 (Q00955 whole entry): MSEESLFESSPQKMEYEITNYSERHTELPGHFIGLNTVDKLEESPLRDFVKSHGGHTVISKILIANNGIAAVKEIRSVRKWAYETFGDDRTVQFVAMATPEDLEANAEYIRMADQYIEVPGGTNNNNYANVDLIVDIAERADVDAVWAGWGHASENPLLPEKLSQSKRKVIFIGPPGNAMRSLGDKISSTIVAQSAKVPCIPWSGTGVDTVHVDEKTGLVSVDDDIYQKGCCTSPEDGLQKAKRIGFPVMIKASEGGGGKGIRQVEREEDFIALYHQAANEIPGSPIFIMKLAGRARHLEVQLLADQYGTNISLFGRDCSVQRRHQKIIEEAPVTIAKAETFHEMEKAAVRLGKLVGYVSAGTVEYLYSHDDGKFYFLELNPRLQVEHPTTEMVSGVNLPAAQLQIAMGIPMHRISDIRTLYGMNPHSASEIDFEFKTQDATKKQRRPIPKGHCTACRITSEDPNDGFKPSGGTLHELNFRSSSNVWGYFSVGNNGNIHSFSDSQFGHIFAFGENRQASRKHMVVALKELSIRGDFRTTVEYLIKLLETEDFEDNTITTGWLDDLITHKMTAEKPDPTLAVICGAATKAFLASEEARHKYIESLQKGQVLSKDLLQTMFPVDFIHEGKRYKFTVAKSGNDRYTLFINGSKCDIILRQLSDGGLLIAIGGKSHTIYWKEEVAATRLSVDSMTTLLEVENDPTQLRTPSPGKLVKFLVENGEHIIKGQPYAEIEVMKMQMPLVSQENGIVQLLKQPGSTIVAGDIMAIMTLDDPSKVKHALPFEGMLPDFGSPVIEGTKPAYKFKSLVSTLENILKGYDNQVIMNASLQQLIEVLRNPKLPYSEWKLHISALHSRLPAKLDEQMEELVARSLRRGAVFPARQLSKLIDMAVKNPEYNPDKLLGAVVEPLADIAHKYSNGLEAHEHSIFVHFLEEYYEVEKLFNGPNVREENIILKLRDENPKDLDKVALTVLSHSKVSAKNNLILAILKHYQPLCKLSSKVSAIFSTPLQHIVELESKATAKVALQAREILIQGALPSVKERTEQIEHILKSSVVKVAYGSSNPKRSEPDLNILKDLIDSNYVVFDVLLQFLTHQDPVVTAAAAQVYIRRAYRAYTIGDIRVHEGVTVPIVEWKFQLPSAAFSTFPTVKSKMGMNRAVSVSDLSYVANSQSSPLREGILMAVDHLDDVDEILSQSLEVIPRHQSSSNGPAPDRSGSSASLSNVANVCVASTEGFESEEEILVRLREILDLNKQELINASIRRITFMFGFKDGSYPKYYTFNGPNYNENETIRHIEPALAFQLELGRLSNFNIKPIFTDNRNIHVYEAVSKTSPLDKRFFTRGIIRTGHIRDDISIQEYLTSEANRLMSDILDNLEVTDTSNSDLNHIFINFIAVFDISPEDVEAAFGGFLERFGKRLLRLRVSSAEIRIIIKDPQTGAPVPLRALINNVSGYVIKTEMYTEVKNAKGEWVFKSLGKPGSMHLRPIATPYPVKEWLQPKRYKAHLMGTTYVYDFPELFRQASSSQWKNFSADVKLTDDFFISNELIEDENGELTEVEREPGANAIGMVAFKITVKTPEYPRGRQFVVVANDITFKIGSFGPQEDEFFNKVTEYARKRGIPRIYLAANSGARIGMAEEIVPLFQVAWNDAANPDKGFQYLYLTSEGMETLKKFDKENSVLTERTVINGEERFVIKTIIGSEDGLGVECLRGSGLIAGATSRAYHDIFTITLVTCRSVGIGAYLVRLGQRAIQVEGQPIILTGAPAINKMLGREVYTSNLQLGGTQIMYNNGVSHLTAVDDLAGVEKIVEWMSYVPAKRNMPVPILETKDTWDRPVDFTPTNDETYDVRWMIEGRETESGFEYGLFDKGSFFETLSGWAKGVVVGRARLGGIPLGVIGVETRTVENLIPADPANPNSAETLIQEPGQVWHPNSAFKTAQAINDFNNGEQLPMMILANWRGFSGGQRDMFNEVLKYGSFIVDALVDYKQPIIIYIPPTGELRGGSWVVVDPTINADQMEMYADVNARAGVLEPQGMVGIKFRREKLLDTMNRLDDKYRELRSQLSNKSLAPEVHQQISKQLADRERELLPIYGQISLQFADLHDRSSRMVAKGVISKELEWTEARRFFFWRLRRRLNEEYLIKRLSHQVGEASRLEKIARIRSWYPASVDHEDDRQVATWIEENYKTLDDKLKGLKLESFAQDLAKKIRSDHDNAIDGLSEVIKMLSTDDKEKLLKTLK

Compound	IC90 [1, 11] [µg/mL]	IC90 [1, 12] [µg/mL]	IC90 [2, 13] [µg/mL]	IC90 [2, 14] [µg/mL]	IC90 [3, 15] [µg/mL]	IC90 [3, 16] [µg/mL]	IC90 [4, 17] [µg/mL]	IC90 [4, 18] [µg/mL]	MIC [5, 19] [µg/mL]	MIC [5, 20] [µg/mL]	IC90 [6, 21] [µg/mL]	IC90 [6, 22] [µg/mL]	IC50 ([7]; Table 2a) [nM]	IC50 ([7]; Table 2b, additional results) [nM]	IC90 [8, 23] [µg/mL]	IC90 [8, 24] [µg/mL]	MIC [9, 25] [µg/mL]	MIC [9, 26] [µg/mL]	MIC [10, 27] [µg/mL]	MIC [10, 28] [µg/mL]	also measured
CCNC(=O)C(C)(C)n1c(=O)c2c(C)c(-n3nccn3)sc2n(C[C@H](OC2CCOCC2)c2cc(F)ccc2OC)c1=O [Compound I-22, (R)—N-ethyl-2-(1-(2-(5-fluoro-2-methoxyphenyl)-2-((tetrahydro-2H-pyran-4-yl)oxy)ethyl)-5-methyl-2,4-dioxo-6-(2H-1,2,3-triazol-2-yl)-1,4-dihydrothieno[2,3-d]pyrimidin-3(2H)-yl)-2-methylpropanamide]	0.08 (≈ 0.13 µM)	0.08 (≈ 0.13 µM)	2 (≈ 3.25 µM)	10 (≈ 16.3 µM)	> 50	> 50	0.4 (≈ 0.651 µM)	0.4 (≈ 0.651 µM)	0.25 to 1 (≈ 0.407 to 1.63 µM)	1.01 to 2 (≈ 1.64 to 3.25 µM)	2 (≈ 3.25 µM)	2 (≈ 3.25 µM)	1 to 5	1 to 5	2 (≈ 3.25 µM)	2 (≈ 3.25 µM)	0.25 to 1 (≈ 0.407 to 1.63 µM)	0.25 to 1 (≈ 0.407 to 1.63 µM)	0.25 to 1 (≈ 0.407 to 1.63 µM)	0.25 to 1 (≈ 0.407 to 1.63 µM)	
COc1ccccc1[C@H](Cn1c(=O)n(C(C)(C)C(=O)NC2CCC2)c(=O)c2c(C)c(-n3nccn3)sc21)OC1CCOCC1 [Compound I-20, (R)—N-cyclobutyl-2-(1-(2-(2-methoxyphenyl)-2-((tetrahydro-2H-pyran-4-yl)oxy)ethyl)-5-methyl-2,4-dioxo-6-(2H-1,2,3-triazol-2-yl)-1,4-dihydrothieno[2,3-d]pyrimidin-3(2H)-yl)-2-methylpropanamide]	0.08 (≈ 0.128 µM)	0.08 (≈ 0.128 µM)	0.4 (≈ 0.642 µM)	0.4 (≈ 0.642 µM)	10 (≈ 16.1 µM)	> 50	0.4 (≈ 0.642 µM)	0.4 (≈ 0.642 µM)	0.25 to 1 (≈ 0.401 to 1.61 µM)	0.25 to 1 (≈ 0.401 to 1.61 µM)	0.4 (≈ 0.642 µM)	0.4 (≈ 0.642 µM)	1 to 5	1 to 5	0.4 (≈ 0.642 µM)	0.4 (≈ 0.642 µM)	0.25 to 1 (≈ 0.401 to 1.61 µM)	0.25 to 1 (≈ 0.401 to 1.61 µM)	0.25 to 1 (≈ 0.401 to 1.61 µM)	0.06 to 0.249 (≈ 0.0963 to 0.4 µM)	
COc1ccccc1[C@H](Cn1c(=O)n(C(C)(C)C(=O)NC2CCCCC2)c(=O)c2c(C)c(-n3nccn3)sc21)OC1CCOCC1 [Compound I-21, (R)—N-cyclohexyl-2-(1-(2-(2-methoxyphenyl)-2-((tetra-hydro-2H-pyran-4-yl)oxy)ethyl)-5-methyl-2,4-dioxo-6-(2H-1,2,3-triazol-2-yl)-1,4-dihydrothieno[2,3-d]pyrimidin-3(2H)-yl)-2-methylpropanamide]													1 to 5	1 to 5							Concentration at 90% Inhibition Fm [1, 11]: AA (compound concentration of 0.08 ppm at 90% inhibition of fungal pathogens); IC90 [1]: 0.08 µg/mL (≈ 0.123 µM); IC90 ([2]; read-out: Concentration at 90% Inhibition Cg, Collectotrichum graminicola, growth inhibition at 48 hours vs 2% DMSO control): 2 µg/mL (≈ 3.07 µM); IC90 ([2]; read-out: Concentration at 90% Inhibition Cg, Collectotrichum graminicola, growth inhibition vs 2% DMSO control at 48 hours): 10 µg/mL (≈ 15.4 µM); IC90 ([3]; read-out: Concentration at 90% Inhibition St, Septoria tritici, growth inhibition at 48 hours vs 2% DMSO control): 10 µg/mL (≈ 15.4 µM); IC90 ([3]; read-out: Concentration at 90% Inhibition St, Septoria tritici, growth inhibition vs 2% DMSO control at 48 hours): > 50 µg/mL; IC90 ([4]; read-out: Concentration at 90% Inhibition Fv, Fusarium virguliforme, growth inhibition at 48 hours vs 2% DMSO control): 2 µg/mL (≈ 3.07 µM); IC90 ([4]; read-out: Concentration at 90% Inhibition Fv, Fusarium virguliforme, growth inhibition vs 2% DMSO control at 48 hours): 2 µg/mL (≈ 3.07 µM); MIC ([5]; read-out: MIC, C. parapsilosis ATCC 22019, Table 3a, 3 replicates, MIC recorded at 48 h): 0.25 to 1 µg/mL (≈ 0.384 to 1.54 µM); MIC ([5]; read-out: MIC, C. parapsilosis ATCC 22019, Table 3b (additional results), 3 replicates, MIC recorded at 48 h): 0.06 to 0.249 µg/mL (≈ 0.0922 to 0.383 µM); IC90 ([6]; read-out: Concentration at 90% Inhibition Dm, Diplodia maydis, growth inhibition at 48 hours vs 2% DMSO control): 0.4 µg/mL (≈ 0.615 µM); IC90 ([6]; read-out: Concentration at 90% Inhibition Dm, Diplodia maydis, growth inhibition vs 2% DMSO control at 48 hours): 0.4 µg/mL (≈ 0.615 µM); IC90 ([8]; read-out: Concentration at 90% Inhibition Bc, Botrtyis cinerea, growth inhibition at 48 hours vs 2% DMSO control): 0.4 µg/mL (≈ 0.615 µM); IC90 ([8]; read-out: Concentration at 90% Inhibition Bc, Botrtyis cinerea, growth inhibition vs 2% DMSO control at 48 hours): 0.4 µg/mL (≈ 0.615 µM); MIC ([9]; read-out: MIC, C. albicans ATCC 90028, Table 3a, 3 replicates, MIC recorded at 48 h): 0.25 to 1 µg/mL (≈ 0.384 to 1.54 µM); MIC ([9]; read-out: MIC, C. albicans ATCC 90028, Table 3b (additional results), 3 replicates, MIC recorded at 48 h): 0.25 to 1 µg/mL (≈ 0.384 to 1.54 µM); MIC ([10]; read-out: MIC, C. krusei ATCC 6258, Table 3a, 3 replicates, MIC recorded at 48 h): 0.25 to 1 µg/mL (≈ 0.384 to 1.54 µM); MIC ([10]; read-out: MIC, C. krusei ATCC 6258, Table 3b (additional results), 3 replicates, MIC recorded at 48 h): 0.06 to 0.249 µg/mL (≈ 0.0922 to 0.383 µM)

Converted amounts (≈) assume the structure as drawn. Like-named read-outs stand apart in the source and are kept apart here.
